The results in this text go back to patent US20250281631A1, “ANTIBODY-DRUG CONJUGATES AND PREPARATION METHODS AND USE THEREOF” (SICHUAN KELUN-BIOTECH BIOPHARMACEUTICAL CO., LTD, priority 2022, published 2025).

In test [1] the test system is NCI-H358 non-small cell lung cancer xenograft model. The experiment in a line: In vivo drug efficacy in NCI-H358 CDX model. As to conditions: 3 administrations, Day 32; for T/C / TGI / Tumor volume (x ± SEM): tail vein injection; for tumor growth inhibition rate (TGI): tail vein. Also on record: species or system female BALB/c-nu mice. Here is the method: 5. Detection of In Vivo Drug Efficacy of Anti-Human HER3 Antibody-Drug Conjugates in H358 Model
NCI-H358 cells were cultured at 37° C., 5% CO2 in RPMI1640 medium containing 10% fetal bovine serum. The NCI-H358 cells in the exponential growth phase were collected, resuspended in PBS to an appropriate concentration, and inoculated subcutaneously in female BALB/c-nu mice to establish a non-small cell lung cancer model. When the average volume of the tumor was about 130 to 150 mm^3, the animals were randomly divided into 11 groups according to tumor size, including: vehicle control group (i.e., negative control group), hIgG1-A-01 1 mg/kg group, U1-59-A-01 1 mg/kg group, ADC 22B6-A-01 1 mg/kg group, hIgG1-B-01 1 mg/kg group, ADC 22B6-B-01 1 mg/kg group, hIgG1-A-07-A 1 mg/kg group, ADC 22B6-A-07-A-1 1 mg/kg and 3 mg/kg groups, hIgG1-B-03-1 1 mg/kg group, ADC 22B6-B-03-1 1 mg/kg group. All animals were administered via injection through tail vein on Day 0, Day 1, Day 4 and Day 10, 3 times in total. After administration, the tumor diameter was measured twice a week with a vernier caliper, and the tumor volume was calculated according to the following formula: V=0.5 a×b^2, wherein a and b represented the long and short diameters of the tumor, respectively, and the death of animals was observed and recorded every day.
The following formula was used to calculate the tumor growth inhibition rate TGI (%), which was used to evaluate the tumor inhibitory efficacy:
[formula] • wherein, • VTend represented a mean value of tumor volume at the end of the experiment in a treatment group • VTstart represented a mean value of tumor volume at the beginning of the administration in a treatment group • VCend represented a mean value of tumor volume at the end of the experiment in the negative control group • VCstart represented a mean value of tumor volume at the beginning of the administration in the negative control group

The test system of test [2] is HEK293T negative cells coexisting with HEK293T-HER3 positive cells. Kind of test: Bystander effect test, labeled HEK293T co-cultured with HEK293T-h HER3. The test is classed as cell-based. As to conditions: negative cells HEK293T and positive cells HEK293T-HER3 coexisted; 4 days. On the procedure:
3. Bystander Effect of Anti-Human HER3 Antibody-Drug Conjugates
HEK293T and HEK293T-h HER3 cells were digested with 0.25% Trypsin-EDTA (manufacturer: Gibco), counted, and an appropriate amount of the cells were taken, washed twice with 1×PBS, the cell density was adjusted to 1×10^6 cells/ml, and then Cell Trace Violet was added to reach a final concentration of 5 μM for labeling, mixed well and incubated in an incubator for 20 min, then the cells were washed with growth medium and counted, plated on 24-well plates (500 μl/well) according to the following ratios: HEK293T-labeled: HEK293T=4000:12000 cells/well, HEK293T-labeled: HEK293T-h HER3=4000:12000 cells/well, HEK293T-h HER3-labeled: HEK293T-h HER3=4000:12000 cells/well, and cultured overnight at 37° C., 5% CO2;
On the next day, ADC was diluted with growth medium to reach concentrations of 20 nM, 4 nM, and 0.8 nM, then 500 μl of the diluted ADC was taken and added to the corresponding 24-well plates containing cells, and the plates were placed and cultured in an incubator at 37° C., 5% CO2 for 4 days;
HEK293T and HEK293T-h HER3 cells were digested with 0.25% Trypsin-EDTA, added to a growth medium containing PI with a final concentration of 3 μM, mixed well, incubated at room temperature for 15 min, and then detected by flow cytometry (Thermo, model: Attune NxT).

Test [3] deals with HCC1569 cells. Kind of test: Endocytosis effects of anti-human HER3 antibody and ADC (pHrodo, flow cytometry). The class given is cell-based. Particulars: 24 hours. On the procedure: 9. Detection of Endocytosis Effects of Anti-Human HER3 Antibody Conjugates
Adherent cells were digested with Trypsin-EDTA (0.25% Shanghai Basal Media Technologies) solution, counted, and adjusted the cell concentration to 1×10^5/ml with complete culture medium, then 100 μl of the cell suspension was added to the 96-well plate (the cell number is 1× 10^4/well), the 96-well plate was incubated in constant temperature CO2 incubator at 37° C. for 24 hours. Then took out the 96-well plate, discarded the medium, and added 50 μl of fresh complete culture medium to each well, the bi-specific antibody and control antibody were diluted with complete culture medium by serial dilution, the final concentrations were 0.55, 1.64, 4.94, 14.81, 44.44, 133.33, 400, 1200 ng/ml, 8 concentrations in total; PHrodo solution (Thermo) was diluted with complete culture medium to 12 μg/ml (the final concentration of PHrodo is 3 μg/ml); the serial diluted antibody candidates and diluted PHrodo solution were 1:1 mixed (30 μl 30 μl), incubated at room temperature in dark for 30 minutes; add 50 μl antibody candidate and PHrodo solution mixture to 96-well bplace, cultured at 37° C., 5% CO2 for 24 hours; took out the 96-well plate, discarded medium, washed once with sterile PBS, then cells were digested with 100 μl/well Trypsin-EDTA (0.25%), neutralized with 100 μl complete culture medium; then cells were separated by piping up and down and detected by flow cytometry. Data processing: the average fluorescence signal values were exported, and then input into GraphPad Prism 6 software to calculate EC50.

B1: 22B6-A-07-A-1: ADC of antibody 22B6D2-hIgG1 conjugated to drug-linker A-07-A, DAR 7.99 (conjugate)
heavy: EVHLVESGGGVVQPGRSLRLSCATSGFTFRSYGMHWVRQAPGKGLEWVAVIWYDGSNKYYADSVKGRFTISRDISKNTLYLQMNSLTAEDTAVYYCARYYYDSNGYYDAFDIWGQGTMVTVSSASTKGPSVFPLAPSSKSTSGGTAALGCLVKDYFPEPVTVSWNSGALTSGVHTFPAVLQSSGLYSLSSVVTVPSSSLGTQTYICNVNHKPSNTKVDKRV[in this place human IgG1 Fc]
light: DIQLTQSPSFLSASVGDRVTITCRASQGISNYLAWYQQKPGKAPKLLIFAASTLQSGVPSRFSGSGSGAEFTLTISSLEPEDFATYYCQQLNSYPITFGQGTRLEIKRTVAAPSVFIFPPSDEQLKSGTASVVCLLNNFYPREAKVQWKVDNALQSGNSQESVTEQDSKDSTYSLSSTLTLSKADYEKHKVYACEVTHQGLSSPVTKSFNRGEC
Take B1: in test [1] (1 mg/kg), the T/C stood at 39.63%, the TGI was 81.22%, the “Tumor volume (x ± SEM)” value stood at 208.35 ± 42.59 mm^3 and the “tumor growth inhibition rate (TGI)” value is recorded as 81.22%. In addition, in test [1] (3 mg/kg), the T/C was 22.77%, the TGI stood at 111.53%, the “Tumor volume (x ± SEM)” value came out at 118.71 ± 29.81 mm^3 and the “tumor growth inhibition rate (TGI)” value was determined as 111.53%. Also, the “bystander killing of negative cells” value in test [2] is given as “significant killing effect on the negative cells”. The EC50 endocytosis effects in test [3] turned out to be 0.03691 µg/mL.

In general, T/C refers to the ratio of treated to control.
